Experimental data published in PubChem BioAssay AID894 (National Center for Advancing Translational Sciences (NCATS), 2007).
Values joined by “and” are separate entries in the source; they are usually repeats but may differ in a detail not shown here. Identical values can stand only once. Screen size: about 150,000 compounds; about 6,500 (4.3%) were called active. This list was built around the results that the source calls inconclusive (neither active nor inactive); the mix of calls is not that of the screen. Calls follow the shape of the dose curve; as a rule, active = well fitted inhibition curve with a large enough effect (not every such curve was filed as active); inconclusive = small, poorly fitted or top-dose-only effect, or another doubt; inactive = no such curve, though single readings can be large or run the other way. Potencies beside an inconclusive call are fits to weak or partial responses and may not hold up.

Each compound was assayed against 15-hydroxyprostaglandin dehydrogenase [NAD(+)] (Homo sapiens) (UniProt P15428) (assay: qHTS Assay for Inhibitors of HPGD (15-Hydroxyprostaglandin Dehydrogenase)). Settings: purified HPGD, NADH fluorescence kinetic, PGE2 substrate; activity change, negative = inhibition: active compounds read low.
UniProt P15428, sequence (P15428 whole entry, looked up): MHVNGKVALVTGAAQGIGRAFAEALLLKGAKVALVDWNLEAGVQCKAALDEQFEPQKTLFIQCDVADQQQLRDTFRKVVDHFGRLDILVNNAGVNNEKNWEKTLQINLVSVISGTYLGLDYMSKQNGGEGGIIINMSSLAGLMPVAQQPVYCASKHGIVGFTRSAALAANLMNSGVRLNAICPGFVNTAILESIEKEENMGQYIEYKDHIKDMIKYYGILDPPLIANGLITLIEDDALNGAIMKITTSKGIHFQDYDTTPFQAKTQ
Method in brief: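 20 nM HPGD preincubated 15 min at room temperature with compound in 50 mM Tris-HCl pH 8, 0.01% Tween 20. Started with 1 mM NAD+ and 30 uM prostaglandin E2; NADH fluorescence (360/450 nm) read 5 times over 30-s intervals, last minus first.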
% is scaled to controls: 0 for no effect and ±100 for the full control effect; potency is read from the fitted curve at half-maximal effect; tags tell the direction and shape of the fitted curve.

Compound | activity change, negative = inhibition | Potency
O=S(=O)(c1ccc(NC(=S)Nc2ccc(OC(F)F)cc2)cc1)N1CCOCC1 | inactive: -5.22% | 
COc1cccc(-c2cc(C(=O)NC3CCCC3)no2)c1 |  | active: 15.8 µM
Cc1ccc(NC(=O)c2cc3c(s2)CCCC3)cc1S(=O)(=O)Nc1ccccc1Cl |  | inconclusive: 39.8 µM [inhibitor, single point]
CCOC(=O)COc1ccc2nsnc2c1 | inactive: -19.7% | 
O=C1N/C(=C\c2ccc(N3CCOCC3)c(F)c2)C(=O)N1Cc1ccccc1 | inactive: -10.3% | 
COc1ccc(-n2ncc3c(N4CCN(c5cc(C)ccc5C)CC4)ncnc32)cc1 |  | inconclusive: 20 µM [inhibitor, partial curve]
Cc1ccc(-c2cn3c(=O)cc(C)[nH]c3n2)cc1 |  | inconclusive: 25.1 µM [inhibitor, partial curve]
C[C@@H](/C=C\c1cccc(Oc2ccc(F)cc2)c1)N(O)C(N)=O |  | inconclusive: 35.5 µM [inhibitor, partial curve]
Cc1cc(=O)oc2cc(O)ccc12 |  | inconclusive: 12.6 µM [inhibitor, partial curve]
CNC(=O)c1cc2c(cn1)[nH]c1ccccc12 |  | inconclusive: 35.5 µM [inhibitor, partial curve] and inconclusive: 35.5 µM [inhibitor, single point]
N#C/C(=C\c1cccc(NC(=O)c2ccccc2Cl)c1)C(=O)NCCc1ccccc1 |  | inconclusive: 39.8 µM [inhibitor, partial curve, poor fit]
Cc1ccc(-c2noc(CCC(=O)NCc3ccco3)n2)cc1 |  | active: 28.2 µM
CSc1nc2ccc(NS(=O)(=O)c3cccc(Cl)c3Cl)cc2s1 |  | active: 15.8 µM
COc1ccccc1-c1cc(C2CC2)nc(N)c1C#N |  | inconclusive: 31.6 µM [inhibitor, partial curve]
Cc1ccc(S(=O)(=O)N/N=C\c2cc([N+](=O)[O-])ccc2Cl)cc1 | inactive: -11.1% | 
CCCNC(=O)c1cc2c3ccccc3n(C)c2s1 |  | inconclusive: 25.1 µM [inhibitor, partial curve]
COc1ccc(CCn2c(SCC(=O)Nc3cc(C)on3)nc3ccsc3c2=O)cc1OC | inactive: -7.5% | 
C=CCn1c(SCn2nnc3ccccc3c2=O)nc2scc(-c3cccs3)c2c1=O |  | inconclusive: 35.5 µM [inhibitor, partial curve]
CCCC(=O)Nc1ccc(NC(=O)c2ccccc2Cl)nc1 | inactive: -1.52% | 
COc1ccc(-c2cc(CNC(=O)CN(C)Cc3ccccc3)on2)cc1 |  | active: 25.1 µM
CC1(C)Cc2c(sc(/N=C/N3CCOCC3)c2C#N)C(C)(C)N1 | inactive: -10.5% | 
O=C(COC(=O)c1c2c(nc3ccccc13)CCCCC2)c1ccc(Cl)s1 | inactive: -7.98% | 
Cc1cc(C(=O)OCC(=O)N2c3ccccc3CC2C)c(C)o1 (stereo not given) | inactive: 0.29% | 

Compound | activity change, negative = inhibition | Potency
COc1ccc(CC(=O)Nc2ccc(-c3nnc(-c4ccc(C)cc4)o3)cc2)cc1 |  | inconclusive: 35.5 µM [inhibitor, partial curve]
COCCn1c(=O)c(-c2cccc(C#N)c2)nc2cnc(N3CCNCC3)nc21 |  | inconclusive: 3.55 µM [inhibitor, full curve]
COC(=O)c1cc2ccsc2n1Cc1cc(=O)n2ccccc2n1 |  | inconclusive: 17.8 µM [inhibitor, partial curve]
COc1ccc(C2=CC(c3cccc(OC)c3)n3nnnc3N2)cc1 (stereo not given) |  | inconclusive: 35.5 µM [inhibitor, partial curve]
O=C1CC(O)(C(F)(F)F)Oc2c1ccc1ccccc21 (stereo not given) |  | inconclusive: 25.1 µM [inhibitor, single point]
COc1cccc2c(=O)c(SC(F)(F)C(F)C(F)(F)F)c(C)[nH]c12 (stereo not given) |  | inconclusive: 20 µM [inhibitor, partial curve]
O=C(N/N=C/c1cccnc1)c1cc(-c2cccs2)nc2ccccc12 |  | inconclusive: 28.2 µM [inhibitor, partial curve]
CCCCCCc1cc2cc(C(=O)Nc3cccc(OC)c3)c(=O)oc2cc1O |  | inconclusive: 20 µM [inhibitor, partial curve]
O=C(CCCN1C(=O)/C(=C\c2ccco2)SC1=S)Nc1cccc2ccccc12 |  | inconclusive: 31.6 µM [inhibitor, partial curve]
COc1ccc(NC(=O)c2ccccc2F)cc1Cl |  | inconclusive: 22.4 µM [inhibitor, partial curve]
O=c1c2sccc2nc(SCc2ccc([N+](=O)[O-])cc2)n1Cc1ccccn1 | inactive: -5.18% | 
O/C(=C\Sc1nnc(Cc2ccccc2)o1)c1ccc(F)cc1 | inactive: -13.5% | 
Cc1cc(N2C3CCC2CC(O)(c2ccc(F)cc2)C3)nc(-c2ccccc2)n1 (stereo not given) |  | inconclusive: 22.4 µM [inhibitor, single point]
NC(=O)OC[C@H](O)COc1ccc(Cl)cc1 | inactive: 1.82% | 
COC(=O)CSc1cc(SCC(=O)OC)c(C#N)c(SCC(=O)OC)c1 |  | inconclusive: 39.8 µM [inhibitor, partial curve, poor fit]
O=S1(=O)N=C(Nc2nncs2)c2ccccc21 |  | active: 28.2 µM
C[C@@H](CCCCC(=O)Nc1ccc(C(F)(F)F)cc1)NCCc1cnc[nH]1 | inactive: 4.04% | 
CCOC(=O)Nc1cccc2ccccc12 |  | inconclusive: 28.2 µM [inhibitor, partial curve]
C=CCn1cc(C(=O)OC)c(=O)c2cc(S(=O)(=O)N(CC)CC)ccc21 |  | inconclusive: 28.2 µM [inhibitor, partial curve]
CCOC(=O)c1snc(C(=O)NC2CCCCC2)c1N |  | inconclusive: 35.5 µM [inhibitor, single point]
CCCCSc1nc(O)c(Cc2ccccc2)c(=O)[nH]1 |  | inconclusive: 39.8 µM [inhibitor, single point]
Cc1ccc2c(c1)cc(CN(Cc1ccc3c(c1)OCO3)C(=O)c1ccccc1)c1nnnn12 |  | inconclusive: 25.1 µM [inhibitor, partial curve]
